Some of the results follow.
target: T1, OsWOX13 (Oryza sativa, UniProt Q5QMM3 1-267); experiment: protein-binding microarray (RPBM); PBS, 2% BSA, 51.3 ng/ul salmon testes DNA, 50 uM zinc acetate, 200 nM TF, 25 C, 1 h; high values mean tight binding; conditions: protein: recombinant; tags: N-terminal polyhistidine and DsRed monomer fusion (pET32a); label: CyDye5-dUTP incorporated in the synthesized complementary strand; 3' TTTTT single-stranded linker to array surface; dsDNA, one strand shown
T1 sequence: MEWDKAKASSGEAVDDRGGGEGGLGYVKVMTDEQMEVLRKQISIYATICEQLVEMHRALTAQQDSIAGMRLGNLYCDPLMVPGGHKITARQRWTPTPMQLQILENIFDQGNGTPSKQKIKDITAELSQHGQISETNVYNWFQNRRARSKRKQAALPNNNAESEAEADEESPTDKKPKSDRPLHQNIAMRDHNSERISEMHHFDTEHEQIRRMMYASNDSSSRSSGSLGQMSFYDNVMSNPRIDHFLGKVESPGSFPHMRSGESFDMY
Method in brief: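 A custom Agilent array was converted to double-stranded form by primer extension with Cy5-dUTP and blocked with 2% BSA. Protein at 200 nM in PBS with 2% BSA, salmon testes DNA and 50 µM zinc acetate was applied for 1 h at 25 °C, followed by washing. The proteins were polyhistidine–DsRed N-terminal fusions of transcription factors, expressed in E. coli BL21-CodonPlus and Ni–NTA-purified. The binding signal is per-feature fluorescence intensity (arbitrary units) from an Axon 4000B scanner.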

Sequence | binding signal
AAGGTTGTTAATTACAAACCATGTTTCGTACTACAACTCTCGGAGTCACCTAGTGCAG | 4580 fluorescence intensity (a.u.)
ATTATATACATGTTAATTGTGTATTTATAGCATTTAACCTCGGAGTCACCTAGTGCAG | 5130 fluorescence intensity (a.u.)
AGTAAATTGGAGGTCGACATCCGCTTCTTCGTATGTGCCTCGGAGTCACCTAGTGCAG | 29800 fluorescence intensity (a.u.)
TTCAAATCTATCTCGCTGACAGGTGGGCCCAGTCCAATGTCGGAGTCACCTAGTGCAG | 5340 fluorescence intensity (a.u.)
GTTGACGGTCTCCCAATCATATCACGTATAAGCATTGGGGCGGAGTCACCTAGTGCAG | 8830 fluorescence intensity (a.u.)
TGAAATTTACTCAATTTTGTGTGGTGAAGTTGTCGACGTGCGGAGTCACCTAGTGCAG | 13400 fluorescence intensity (a.u.)
CAAGTGAAGAAAGACTGTTAATTGCAAATTGCCGTGCGGACGGAGTCACCTAGTGCAG | 5450 fluorescence intensity (a.u.)
AGGAGATATTGATTTGTATAAATTACCACAAAATTGTGTGCGGAGTCACCTAGTGCAG | 34600 fluorescence intensity (a.u.)
AGTATCCAATTACACGGTGTAAAGCTCGCTACAGTTCGATCGGAGTCACCTAGTGCAG | 3590 fluorescence intensity (a.u.)
GGTTAATTGCATTGCGTCCGCGTTGGGTTTGCGTTGCATGCGGAGTCACCTAGTGCAG | 32500 fluorescence intensity (a.u.)
AAGACTAATTGGCATTGCCTCTTGTCACAGCGTAATTTAACGGAGTCACCTAGTGCAG | 17800 fluorescence intensity (a.u.)
TATTCATCAGAGTGATTTGTTCTGGCGTTTGGGCAAAATCCGGAGTCACCTAGTGCAG | 4050 fluorescence intensity (a.u.)
ATCCAATCTACCATATAGTTCATATTCATTATGTGACACACGGAGTCACCTAGTGCAG | 3180 fluorescence intensity (a.u.)
TGTGCAGATTGAATAATAGTTTGAATTTTCGATCTTCACACGGAGTCACCTAGTGCAG | 10700 fluorescence intensity (a.u.)
CTAATTAATCCGTCATTAGAAAATGTTTACTGCATCATACCGGAGTCACCTAGTGCAG | 9970 fluorescence intensity (a.u.)
TTCGTCTGATTTAATCTTATGACAAGAAAGGTAAATACATCGGAGTCACCTAGTGCAG | 8330 fluorescence intensity (a.u.)
GTCCAACGAGTCAATCACACCCTGAGAGCGAATTCTGGCCCGGAGTCACCTAGTGCAG | 19000 fluorescence intensity (a.u.)
TCAACTAATCGTACGCTAATGACTTACCAAATTTTACGTACGGAGTCACCTAGTGCAG | 3460 fluorescence intensity (a.u.)
TTGGCAAATTGACCGTGATGGGTTCTTTGTTTCCGTTTGCCGGAGTCACCTAGTGCAG | 39500 fluorescence intensity (a.u.)
AACTCATCCCCAATTATATATAACTGTATACGGAAATGCCCGGAGTCACCTAGTGCAG | 4680 fluorescence intensity (a.u.)
TGTTTAATTACAAGGAATTTCATTGATGACAGTTCAATATCGGAGTCACCTAGTGCAG | 10900 fluorescence intensity (a.u.)

Sequence | binding signal
TCAATGATTGCTGTATAAATGTTGTGTTGTGCAAATTATGCGGAGTCACCTAGTGCAG | 29700 fluorescence intensity (a.u.)
AATTGGAGACTGATTAGAGAGCTAGGCGAGCGAGGAGGAACGGAGTCACCTAGTGCAG | 4920 fluorescence intensity (a.u.)
CCTGCTTAATTAATCCATTATTACCTCCATGCCACATCTCCGGAGTCACCTAGTGCAG | 18500 fluorescence intensity (a.u.)
AAAACGGCACTGATGACAATAATTGCTGGCCATGGTTTCACGGAGTCACCTAGTGCAG | 5900 fluorescence intensity (a.u.)
ACTACTAAGTTAATTGCATTTTACTTCTCTCTCAATCTCGCGGAGTCACCTAGTGCAG | 10000 fluorescence intensity (a.u.)
ATGTGCTAATTACTAACTAACAACCACTAGGTTTGACTATCGGAGTCACCTAGTGCAG | 20600 fluorescence intensity (a.u.)
ACTCTCTCCCGGCAATAATTGGTGACTGCTTCCACTTTTACGGAGTCACCTAGTGCAG | 5520 ± 996 fluorescence intensity (a.u.)
ATGATATAATTAATTAATTAGCGCGCGGTTCCACCTCCCGCGGAGTCACCTAGTGCAG | 60200 fluorescence intensity (a.u.)
TTGATGATGACAGATCGAATGGTCAGGATTAGTTGGTACCCGGAGTCACCTAGTGCAG | 25500 fluorescence intensity (a.u.)
AGGGGATTAATTCCACTCATTAATAGATGTGAAATTATTCCGGAGTCACCTAGTGCAG | 12300 fluorescence intensity (a.u.)
AATTAATAGTTTTAATTTAAAAGACACCTGATGAATAGAACGGAGTCACCTAGTGCAG | 9880 fluorescence intensity (a.u.)
GTAAATTGTTTACTATCGAATGTACATGCTATATATATTGCGGAGTCACCTAGTGCAG | 20400 fluorescence intensity (a.u.)
GTATAATGGATAACATAGCAGCTATATGTAAAACTCCATTCGGAGTCACCTAGTGCAG | 3430 fluorescence intensity (a.u.)
ATGGTGATGATGTGGCATATTGACATGTGGGACCCACGTGCGGAGTCACCTAGTGCAG | 6120 fluorescence intensity (a.u.)
CATTAACTGAAAAGAGAGAGTTGATATATGATAGTACCTCCGGAGTCACCTAGTGCAG | 8460 fluorescence intensity (a.u.)
TAATAATTTGAGGGTGAATAGCCAATCTAGTCCCTCAAGTCGGAGTCACCTAGTGCAG | 12300 fluorescence intensity (a.u.)
TTTTATTTGACTGGTGGATGAAATACCAATCTTGTTTGGCCGGAGTCACCTAGTGCAG | 16000 fluorescence intensity (a.u.)
TACTACTGACATAACTAAATTAAGTACACATATCCCAAGGCGGAGTCACCTAGTGCAG | 13500 fluorescence intensity (a.u.)
GGTGGTGGTGGTGGTGGTGGTGGCGTCGAGATAGTGAGCGCGGAGTCACCTAGTGCAG | 8140 fluorescence intensity (a.u.)
CACGTGGTGATTAGATAGTACTGTAGATTAGCATTAGGTTCGGAGTCACCTAGTGCAG | 23900 fluorescence intensity (a.u.)
AGCTTGGAATTGATTGTTCATCTTCTGTATTCAGTCAAGTCGGAGTCACCTAGTGCAG | 28000 fluorescence intensity (a.u.)

Sequence | binding signal
TGCATCCTGATATGATTGCCGTCCAATCGGGAACGCGCCTCGGAGTCACCTAGTGCAG | 18400 fluorescence intensity (a.u.)
TCAAATTTAAATAAATGGATGTAACATTTATTATATCGCACGGAGTCACCTAGTGCAG | 22400 fluorescence intensity (a.u.)
TTTCGTTAATGGAGACTGACATCATGGATTTTAGTTTCCTCGGAGTCACCTAGTGCAG | 16500 fluorescence intensity (a.u.)
TTTCTAATCTTCTAGATTGAGTTATTTTGGGACGGATAGACGGAGTCACCTAGTGCAG | 6810 fluorescence intensity (a.u.)
AAGATTATTAATTAGAGATATTTCATCTGGCATTTATAAACGGAGTCACCTAGTGCAG | 11400 fluorescence intensity (a.u.)
CCTACCTCCATTATTCATCCAATCACAACCCTCCACCAATCGGAGTCACCTAGTGCAG | 7860 fluorescence intensity (a.u.)
CTGACGAGTTATTATTAACCCACCCACCCGGAAGCCACTGCGGAGTCACCTAGTGCAG | 3300 fluorescence intensity (a.u.)
AAAACACTAGGATAATTAGCTTGAGCCATATGCTTATCTCCGGAGTCACCTAGTGCAG | 5750 fluorescence intensity (a.u.)
CTGATAGATAGATATGAATGAATATGGTGCATGGGCGTTGCGGAGTCACCTAGTGCAG | 27500 fluorescence intensity (a.u.)
CTACCAACTGCAATGATTACTTGATTAGTGAAAGGAGCATCGGAGTCACCTAGTGCAG | 9830 fluorescence intensity (a.u.)
ATGTTTGATTAGCCAGCACGCGATTCTTGTGTTAATAGTTCGGAGTCACCTAGTGCAG | 29000 fluorescence intensity (a.u.)
TCACATTTATATTGATGTTAATGAATCTAAATAGATAAATCGGAGTCACCTAGTGCAG | 4070 fluorescence intensity (a.u.)
TCACCATTGATTAGCGAATAAGATGGTGATTAGTGTCGCCCGGAGTCACCTAGTGCAG | 30300 fluorescence intensity (a.u.)
CTGGTTCTATAATAATTGATGTTTTAGATAAGATTGAAGTCGGAGTCACCTAGTGCAG | 11200 fluorescence intensity (a.u.)
ATGATTAGGCGTAGCCCTGGTCAAGCTGCATGTGGAGAGGCGGAGTCACCTAGTGCAG | 7230 fluorescence intensity (a.u.)
GAAGACTTAATTGGCGATTCTGCGCTAATCTCTCGCTTAACGGAGTCACCTAGTGCAG | 28200 fluorescence intensity (a.u.)
AATAGTAATTAGCTGGTAATCACATGGGCAAAGTTGTAAACGGAGTCACCTAGTGCAG | 27300 fluorescence intensity (a.u.)
AATTAGCTAATACTTAATTAATCACGTGCTAATGGATCACCGGAGTCACCTAGTGCAG | 9830 fluorescence intensity (a.u.)
AGCATCCAATCAAACCCAGCAGATTATGGATGGGTTTATCCGGAGTCACCTAGTGCAG | 26800 fluorescence intensity (a.u.)
ATAAATTTAGGATAAGAAAATTACTCAGGTAGGAGTAATACGGAGTCACCTAGTGCAG | 3250 fluorescence intensity (a.u.)
CTTGATTGCCTTCAATATCAAGATGTTCAAGAAGTGATTTCGGAGTCACCTAGTGCAG | 39800 fluorescence intensity (a.u.)

Sequence | binding signal
TCGCCGTTAATTGCATAATAATCTGGACAAGTGATGCCTACGGAGTCACCTAGTGCAG | 33800 fluorescence intensity (a.u.)
ATCCATGTAAATTAACTCATCCAATGTGACAGCACGACGCCGGAGTCACCTAGTGCAG | 8800 fluorescence intensity (a.u.)
AGATTATATCTAACAGCTAATTGAATTTATTGTGTCATGACGGAGTCACCTAGTGCAG | 8570 fluorescence intensity (a.u.)
ATTTAATTTCTTGGACAGCAATGATGGAGTTCATAGAGCTCGGAGTCACCTAGTGCAG | 18900 fluorescence intensity (a.u.)
CACTGATTTCTTTATAAATGCAATTGGAAATTAGTACTATCGGAGTCACCTAGTGCAG | 15900 fluorescence intensity (a.u.)
CATATCAAATCAACTAAATTTATAAATGTAATTTTAGTTACGGAGTCACCTAGTGCAG | 9970 fluorescence intensity (a.u.)
TTCGTAAATTTGATCGAATTTGGCTTTTAGACGCTGGACACGGAGTCACCTAGTGCAG | 19200 fluorescence intensity (a.u.)
TTTTGTTAATTGTTTCCCCTTTTGTTTGGTTTTGATGTTTCGGAGTCACCTAGTGCAG | 28700 fluorescence intensity (a.u.)
GTTTAAATTGCATATGTAGTATGTTTAGCATTAAACCGTTCGGAGTCACCTAGTGCAG | 13900 fluorescence intensity (a.u.)
TTGCAATCACCGAACAAGGTTATGCATAATGCAAACATTGCGGAGTCACCTAGTGCAG | 5470 fluorescence intensity (a.u.)
CAGAAACATCACCAATCACTAAACAAGTAGCAGGACATCTCGGAGTCACCTAGTGCAG | 10500 fluorescence intensity (a.u.)
ATTATTAAACGTAGACTAATTAGAATTATTAAACGTAGACCGGAGTCACCTAGTGCAG | 17800 fluorescence intensity (a.u.)
CTTTATAATTTATATTCCTAATGTTTGACTTAAACATTGTCGGAGTCACCTAGTGCAG | 17000 fluorescence intensity (a.u.)
GACCAAGAAATAATTATTATCACATTATAGTTTGGATTACCGGAGTCACCTAGTGCAG | 4840 fluorescence intensity (a.u.)
GCCTTAATCTAATGATCAGTCAAAACATAGTCTAATTTGGCGGAGTCACCTAGTGCAG | 15000 fluorescence intensity (a.u.)
TGTGACGTCAATTTATCATCTATTTCATGGAGCAAACTTGCGGAGTCACCTAGTGCAG | 21900 fluorescence intensity (a.u.)
CTGATTACTAAATGGGCCGCATCATGAGTTTTGTTTTAATCGGAGTCACCTAGTGCAG | 17700 fluorescence intensity (a.u.)
AGATATATAAGATTGATCTCCCACACCACACCACAGCACTCGGAGTCACCTAGTGCAG | 3190 fluorescence intensity (a.u.)
TTTCAGTGGTCCAATCAACGCTGCAGGCCACTGCACTGTGCGGAGTCACCTAGTGCAG | 4700 fluorescence intensity (a.u.)
TAGCTGATTATCATGTGTTTGTTAGCAGGTCCAACATCCCCGGAGTCACCTAGTGCAG | 39000 fluorescence intensity (a.u.)
TCCTTGCTAACAAATCAACCAATTTGTCCATTCCCTATGTCGGAGTCACCTAGTGCAG | 3440 fluorescence intensity (a.u.)
